Source: the supplement of paper PMC11876631
± gives the standard deviation of the averaged measurements. Laboratory Escherichia coli strains with one amino-acid change in an essential protein, pooled on minimal glucose agar with carbenicillin or gentamicin at twice the control MIC (plus kanamycin and chloramphenicol for the plasmids), 48 h. Fold change of barcode share against drug-free plates; higher = less susceptible. Active = above 20 in both replicates (the paper's putatively resistant). '<' = one read or none on drug, '>' = one read or none on a drug-free plate. Shares are relative, so most strains fall below 1 when a few take over. Listed are strains with at least 15 reads on both drug-free plates, and hits; most hits rest on fewer reference reads. Replicate rank correlation about 0.5. Edits are read from barcodes.

B1: mrdA; numbered along this chain (parent)
chain: MKLQNSFRDYTAESALFVRRALVAFLGILLLTGVLIANLYNLQIVRFTDYQTRSNENRIKLVPIAPSRGIIYDRNGIPLALNRTIYQIEMMPEKVDNVQQTLDALRSVVDLTDDDIAAFRKERARSHRFTSIPVKTNLTEVQVARFAVNQYRFPGVEVKGYKRRYYPYGSALTHVIGYVSKINDKDVERLNNDGKLANYAATHDIGKLGIERYYEDVLHGQTGYEEVEVNNRGRVIRQLKEVPPQAGHDIYLTLDLKLQQYIETLLAGSRAAVVVTDPRTGGVLALVSTPSYDPNLFVDGISSKDYSALLNDPNTPLVNRATQGVYPPASTVKPYVAVSALSAGVITRNTTLFDPGWWQLPGSEKRYRDWKKWGHGRLNVTRSLEESADTFFYQVAYDMGIDRLSEWMGKFGYGHYTGIDLAEERSGNMPTREWKQKRFKKPWYQGDTIPVGIGQGYWTATPIQMSKALMILINDGIVKVPHLLMSTAEDGKQVPWVQPHEPPVGDIHSGYWELAKDGMYGVANRPNGTAHKYFASAPYKIAAKSGTAQVFGLKANETYNAHKIAERLRDHKLMTAFAPYNNPQVAVAMILENGGAGPAVGTLMRQILDHIMLGDNNTDLPAENPAVAAAEDH
B2: rpoH; a variant is named by its letters at X, in order (parent)
chain: MTDKMQSLALAPVGNLDSYIRAANAWPMLSADEERALAEKLHYHGDLEAAKTLIXSHLRFVVHIARNYAGYGLPQADLIQEGNIGLMKAVRRFNPEVGVRLXSFAVHWIKAEIHEYVLRNWRIVKVATTKAQRKLFFNLRKTKQRLGWFNQDEVEMVARELGVTSKDVREMESRMAAQDMTFDLSSDDDSDSQPMAPVLYLQDKSSNFADGIEDDNWEEQAANRLTDAMQGLDERSQDIIRARWLDEDNKSTLQELADRYGVSAERVRQLEKNAMKKXRAAIEA
B3: bioH; numbered along this chain (parent)
chain: MNNIWWQTKGQGNVHLVLLHGWGLNAEVWRCIDEELSSHFTLHLVDLPGFGRSRGFGALSLADMAEAVLQQAPDKAIWLGWSLGGLVASQIALTHPERVQALVTVASSPCFSARDEWPGIKPDVLAGFQQQLSDDFQRTVERFLALQTMGTETARQDARALKKTVLALPMPEVDVLNGGLEILKTVDLRQPLQNVSMPFLRLYGYLDGLVPRKVVPMLDKLWPHSESYIFAKAAHAPFISHPAEFCHLLVALKQRV

Variants of: B1
Assay: barcode share on antibiotic plates over drug-free plates; higher = less susceptible
Settings: with Escherichia coli (laboratory strain); antibiotic: carbenicillin; 2× MIC (3.1 µg/mL)
Method: (§1)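 A pool of E. coli strains, each edited to carry one amino-acid change in an essential protein, was grown for 48 h on minimal glucose agar with or without antibiotic; strain barcodes were sequenced; mean of two replicates.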

Variant	fold change of barcode share
I176Q	0.184 ± 0.098

Same assay, conditions: with Escherichia coli (laboratory strain); antibiotic: gentamicin; 2× MIC (MIC 0.45 µg/mL)

Variant	fold change of barcode share
I176Q	< 0.0167

Variants of: B2
Assay: as above
Settings: with Escherichia coli (laboratory strain); antibiotic: gentamicin; 2× MIC (MIC 0.45 µg/mL)
Method: as §1

Variant	fold change of barcode share
LVL F60D	< 0.00245
DVL	< 0.00165
LAL	0.008061 ± 3.5e-05
LVW	< 0.00235
LVD	< 0.0101
LVP	0.0144 ± 0.013
LVQ	0.0107 ± 0.0046
LVA	< 0.00787
LDL	< 0.0057
PVL	0.0138 ± 0.0078
WVL	0.00373 ± 0.0022
LPL	0.00871 ± 0.00021
LVL M87D	< 0.0165
LVL M87Q	< 0.0168
LWL	< 0.00638
LVL V90A	< 0.0138
LQL	< 0.00899
LVL F104W	< 0.00682
LVL F104Q	< 0.00376
LVL F104A	< 0.0128
LVL F93Q	< 0.00283
LVL F93W	0.00553 ± 0.0028
LVL F93A	< 0.00235
QVL	0.00376 ± 0.0024
AVL	0.00712 ± 0.00021

Same assay, conditions: with Escherichia coli (laboratory strain); antibiotic: carbenicillin; 2× MIC (3.1 µg/mL)

Variant	fold change of barcode share
DVL	0.28 ± 0.11
LAL	0.182 ± 0.049
LVW	0.251 ± 0.028
LVD	0.415 ± 0.18
LVP	0.211 ± 0.032
LVQ	0.292 ± 0.08
LVA	0.237 ± 0.14
LDL	0.3 ± 0.082
WVL	0.369 ± 0.12
LPL	0.363 ± 0.0065
LWL	0.341 ± 0.22
LVL V90A	0.224 ± 0.15
LVL V90Q	0.154 ± 0.067
LVL V61A	0.238 ± 0.098
LVL V61P	0.265 ± 0.067
LQL	0.256 ± 0.029
LVL F104W	0.261 ± 0.08
LVL F104Q	0.241 ± 0.049
LVL F104A	0.13 ± 0.086
LVL F93Q	0.158 ± 0.042
LVL F93W	0.289 ± 0.06
LVL F93A	0.244 ± 0.2
QVL	0.22 ± 0.092
AVL	0.269 ± 0.086

Variants of: B3
Assay: as above
Settings: with Escherichia coli (laboratory strain); antibiotic: carbenicillin; 2× MIC (3.1 µg/mL)
Method: as §1

Variant	fold change of barcode share
L249Q	0.378 ± 0.067

Same assay, conditions: with Escherichia coli (laboratory strain); antibiotic: gentamicin; 2× MIC (MIC 0.45 µg/mL)

Variant	fold change of barcode share
L249Q	0.00508 ± 0.0018
